Results as given in PubChem BioAssay AID1159614 (National Center for Advancing Translational Sciences (NCATS), 2016).
The whole screen tested about 45,000 compounds, of which about 65 (0.1%) were called active. Calls come from the whole dose curve; as a rule, active = well fitted activation curve with a large enough effect; inconclusive = small, poorly fitted or top-dose-only effect; inactive = no such curve, though single readings can be large or run the other way. The list shows a part of the results.

Molecular target: Galactocerebrosidase (Homo sapiens) (UniProt P54803)
Chain of UniProt P54803 (P54803 whole entry, looked up): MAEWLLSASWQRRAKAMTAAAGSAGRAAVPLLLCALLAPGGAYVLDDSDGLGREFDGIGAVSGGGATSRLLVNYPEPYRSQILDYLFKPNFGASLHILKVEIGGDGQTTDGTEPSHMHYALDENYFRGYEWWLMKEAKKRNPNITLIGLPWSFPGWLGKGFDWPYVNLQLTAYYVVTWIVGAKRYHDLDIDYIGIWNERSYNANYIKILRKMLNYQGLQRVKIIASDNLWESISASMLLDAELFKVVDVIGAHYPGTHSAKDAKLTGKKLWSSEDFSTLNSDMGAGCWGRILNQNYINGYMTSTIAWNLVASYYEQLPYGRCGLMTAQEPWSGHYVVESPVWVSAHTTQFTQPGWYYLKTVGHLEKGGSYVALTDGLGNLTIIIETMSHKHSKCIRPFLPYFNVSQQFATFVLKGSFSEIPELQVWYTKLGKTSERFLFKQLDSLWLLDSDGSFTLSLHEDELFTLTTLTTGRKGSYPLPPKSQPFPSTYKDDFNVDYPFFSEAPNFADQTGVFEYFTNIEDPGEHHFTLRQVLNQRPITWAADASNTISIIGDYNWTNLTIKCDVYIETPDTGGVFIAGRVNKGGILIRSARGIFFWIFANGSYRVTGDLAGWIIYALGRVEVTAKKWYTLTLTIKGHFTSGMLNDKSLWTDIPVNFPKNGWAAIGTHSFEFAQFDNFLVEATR
Experiment: A Novel Cell-Based Assay to Identify Small Molecules for B -Galactocerebrosidase; note: 0% is about no effect; nearly all actives have a fitted effect of over 65% in size
Conditions: 145M-Twi-hGALC-G270D cells, HMU-beta-Gal fluorescence, 48 h; series mostly up to 57.5 µM; activation: at the top concentration
Method in brief: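 qHTS, 1536-well; 145M-Twi-hGALC-G270D cells (WT line also made) in DMEM/F12 + 10% FBS; compound incubation on live cells; HMU-β-gal 0.1 mM final, pH 5.2, NaTC; carbonate stop; fluorescence increase = enhanced residual activity.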

activation, inactive:
COc1ccc(-c2onc(C)c2C)cc1S(=O)(=O)N1CCN(c2ccc(Cl)cc2)CC1 -8.84%
Nc1nonc1C(=O)NCCNCc1cccc(Cl)c1Cl -8.54%
COc1ccc(NC(=O)Cn2c(=O)n(Cc3ccccc3Cl)c(=O)c3cc(OC)c(OC)cc32)cc1OC -3.81%
CCCCN(CC)CCCNC(=O)C1CCCN(c2ncnc3c2nc2n3CCCCC2)C1 (configuration not stated) -20.3%
O=C1CC(c2cccc(O)c2)c2cc3c(cc2N1)OCO3 (configuration not stated) -13.8%
CCCC(=O)c1cc(O)c(O)cc1O -10% [at 114 µM]
CCN(CC)CCn1c(-c2ccccc2)csc1=Nc1ccccc1 -15%
Cc1ccc(-n2ncc3c(N(CC(C)C)CC(C)C)ncnc32)c(C)c1 -13.9%
CC(C)S(=O)(=O)c1oc(-c2cccs2)nc1S(=O)(=O)c1ccc(F)cc1 -3.55%
Cc1ccc(NC(=O)c2c(C)oc3ccc(O)c(CN4CCCCCC4)c23)cc1 -14%
Cc1c(CC(=O)NCCc2ccccc2F)c(=O)oc2cc(O)c(Cl)cc12 -19.3%
O=C(COc1ccccc1[N+](=O)[O-])N1CCC(c2nc3ccccc3o2)CC1 -13.2%
Cn1cc(-c2cc3n(n2)CCC(=O)N3CC(=O)NCc2ccc(Cl)cc2)c2ccccc21 -20.5%
Cc1ccc(CCNC(=O)c2c(C)oc3nc(C)nc(N4CCOCC4)c23)cc1 -7.62%
CCN(CCCNC(=O)c1cc(Nc2ccc(OC)cc2OC)nc2ccccc12)c1cccc(C)c1 -37.4%
CCOCCCNC(=O)c1c(NC(=O)c2cc(=O)c3ccccc3o2)sc2c1CCC2 -14.1%
COc1ccccc1N1CCN(C(=O)Nc2cn(CC(C)C)c(=O)c3ccccc23)CC1 -24.1%
O=c1oc2c(CN3CCCC3)c(O)ccc2cc1-c1ccccc1 -20.4%
CC(C)C(=O)Nc1cccc(C(=O)Nc2nnc(CC(C)(C)C)s2)c1 -5.46%
Cc1ccc(S(=O)(=O)C(CNC(=O)Cc2ccc(Cl)cc2)c2cccs2)cc1 (configuration not stated) -7.98%
CCc1ccccc1NC(=O)c1cc2nc(-c3ccc(OC)c(OC)c3)cc(C(F)(F)F)n2n1 -12.5%
Cc1cccc(Cn2c(=O)n(Cc3ccc4c(c3)OCO4)c(=O)c3oc4ccccc4c32)c1 -29.4%
CCOc1ccc(CNC(=O)c2ccc3c(c2)nnn3C2CCCC2)cc1 -5.07%
Cc1ccc2c(=O)cc(C(=O)Nc3c(C(=O)Nc4cccc(Cl)c4)oc4ccccc34)oc2c1 -8.02%
O=C(Nc1ccc(C(=O)OCc2cc(=O)n3c4c(sc3n2)CCCC4)cc1)c1ccc(Cl)cc1 -7.47%
CC(C)c1ccc(NC(=O)Nc2csc3c2CCCC3)cc1 -38.2%
COc1ccc(NC(=O)c2c(NCc3cccs3)sc3c2CCCC3)cc1 -10%
CCCCN(C)CC(O)Cn1cc(/C=C/C(=O)c2ccc(C)cc2)c2ccccc21 (configuration not stated) -1.13%
COC(=O)c1ccc(NC(=O)Cn2c(=O)nc(-c3ccccc3)c3ccccc32)cc1 -7.73%
CCOC(=O)c1ccc(NC(=O)Cn2ncc3c(C)n(Cc4ccccc4F)c(C)c3c2=O)cc1 -6.89%
COc1cc2ccccc2cc1C(=O)Nc1ccc2oc(-c3ccc(Cl)cc3)nc2c1 -11.2%
Cc1ccc(N2C(=O)CSC23C(=O)N(CC(=O)NC2CCCCC2)c2ccccc23)cc1C (configuration not stated) -16.9%
Cn1cc(C(c2ccccc2)c2ccc(Cl)s2)c2ccccc21 (configuration not stated) -11%
CCOc1cccc(NC(=O)C2CC(=O)N(C)C(=Nc3ccc(F)cc3)S2)c1 (configuration not stated) -14.7%
CCOc1ccccc1NC(=O)CN1C(=O)COc2ccc(S(=O)(=O)N3CCCCC3)cc21 -11.6%
O=C(c1ccc(Br)s1)N(Cc1cccnc1)c1nc2ccc(F)cc2s1 -14.9%
Cc1ccc2nc(COc3ccccc3NC(=O)COc3ccccc3Cl)cc(=O)n2c1 -0.648%
Cc1ccc(CNC(=O)C2CCN(S(=O)(=O)c3c(C)noc3/C=C/c3c(C)cc(C)cc3C)CC2)cc1 -14%
CSc1ncc(C(=O)NCc2ccc(C)cc2)c(-c2ccccc2)n1 -12.9%
Oc1c(Br)cc(Br)c2cccnc12 -13.1%
CCOC(=O)c1c(C)oc2ncnc(Nc3cc(Cl)ccc3OC)c12 -12.4%
Nc1nc(=O)n([C@@H]2O[C@H](CO)[C@@H](O)[C@@H]2F)cc1I 1.43%
CCOc1ccc(C(=O)Nc2ccccc2OCc2cc(=O)n3ccccc3n2)cc1 -7.58%
Cc1cc(C(=O)Nc2cccc(F)c2)c2c(C)nn(-c3cccc(Cl)c3C)c2n1 -8.48%
CCc1nn(CC(=O)NCc2ccc(OC)c(OC)c2)c(=O)c2cc3sc(C)cc3n12 -18.7%
Cc1ccccc1C(=O)OCc1cc(=O)n2c(C)csc2n1 0.902%
CCCNC(=O)c1cnc2sc(N3CCCCCC3)nn2c1=O -12.6%
CCOC(=O)c1c(NC(=O)c2cc3nc(-c4ccccc4)cc(C(F)(F)F)n3n2)sc2c1CCC(C)C2 (configuration not stated) -17.8%
CCOC(=O)Cn1c(=O)n(-c2ccccc2OC)c2nc(-c3ccccc3F)nc(C(N)=O)c21 9.8%
COc1ccc(CCNC(=O)c2nc(SCc3ccc(C)cc3)ncc2Cl)cc1OC 6.36%
CCOC(=O)N1CCC(=C2c3ccc(Cl)cc3CCc3cccnc32)CC1 -9.41%
CN(C)c1ccc(C(=O)Nc2cccc(-c3nc4cccnc4s3)c2)cc1 -13.3%
COc1ccccc1OCCCCn1c(-c2ccc(Cl)cc2)nc2ccccc2c1=O -10.3%
COc1cccc(Cn2c(SCC(=O)N(C)c3ccccc3)nc3ccccc32)c1 -6.36%
COc1cccc2cc(-c3csc(-c4ccc(Cl)cc4)n3)c(=O)oc12 -12.6%
O=C(Nc1ccc(C(F)(F)F)cc1)C1CCN(c2cnccn2)CC1 -15.5%
Cc1ccc(CCNC(=O)c2cc(C)nc3c2c(C)nn3-c2ccc(C)cc2)cc1 -3.71%
CCc1ccc(-c2nn(CC(=O)NCc3ccccc3)c3c2cnc2ccc(C)cc23)cc1 -9.04%
CC(C)c1ccc(NC(=O)CCS(=O)(=O)c2cccc3nonc23)cc1 -6.57%
CCc1ccc(-n2nc(C)c3c(C(=O)Nc4cc(C)c(Cl)cc4OC)cc(C)nc32)cc1 -8.45%
CCCN(C(=O)COc1cc(=O)n(CC)c2ccccc12)c1ccc(C(C)C)cc1 -43.3%
CCOc1ccccc1NC(=O)Cn1c(=O)n(-c2ccc(F)cc2)c(=O)c2c3c(sc21)CN(C(C)=O)CC3 -17.8%
O=C(CN1CCSc2ccccc21)N1CCCCC1 -0.396%
Cc1ccc(CCNC(=O)c2ccc(CNS(=O)(=O)c3ccccc3)cc2)cc1 14.2%
Cc1ccccc1CNC(=O)c1ccc(CSc2nc3cccnc3n2Cc2ccccc2)cc1 -14.1%
COC(=O)c1ccc(Cn2c(SCc3ccccc3)nc3ccncc32)cc1 -9.61%
Cc1ccc(-c2nc(CS(=O)(=O)CC(=O)NCc3ccc(Cl)cc3)c(C)o2)cc1 -13.9%
CCc1ccc(-n2c(SCc3ccccc3C)nc3[nH]ncc3c2=O)cc1 -18.9%
CCOC(=O)c1c(NC(=O)/C(C#N)=C/c2ccccc2)sc2c1CCC2 -15.6%
COc1cc(NC(=O)Cn2cnc3c2c(=O)n(C)c(=O)n3C)c(OC)cc1Cl 3.45%
Cc1cc(C)cc(NC(=O)Nc2ccccc2OCc2cc(=O)n3ccccc3n2)c1 -15.9%
CC(=O)Nc1ccc(NC(=O)c2cc3sccc3n2Cc2ccc(Cl)cc2)cc1 -16.1%
CCOc1cc(/C=C(\C#N)C(=O)Nc2ccc(C)cc2)ccc1OCc1cc(=O)n2nc(CC)sc2n1 -4.75%
CCOc1ccccc1NC(=O)c1c(NCc2cccs2)sc2c1CCCCC2 -18.3%
CCn1c(C)c(C)c2cc(C(=O)NCc3ccc(OC)cc3OC)ccc21 -20%
CCN(CC)S(=O)(=O)c1ccc(NC(=O)c2c(C)oc3ncnc(N4CCOCC4)c23)cc1 -1.97%
CCc1c(C)sc2c1CCN(C(=O)Nc1cc(Cl)c(OC)cc1OC)C2c1ccccc1 (configuration not stated) -6.96%
CCC(=O)N1CCc2cc(CNS(=O)(=O)c3ccc(NC(=O)CC(C)C)cc3)ccc21 -6.08%
COc1cccc2c1Oc1ncccc1N(C(=O)CCC(=O)NC(C)C)C2 -2.3%
O=C(NOCC1CC1)c1ccc(F)c(F)c1Nc1ccc(I)cc1Cl -11.9%
C#CCn1cnc2c(cnn2-c2ccc(F)cc2)c1=O -18.4%
CCC(=O)N1CCc2cc(Br)cc(S(=O)(=O)CCC(=O)Nc3ccc(C)c(F)c3)c21 -8.57%
COc1ccc2c(c1)CC(C(=O)NCCCN1CCN(c3ccccc3F)CC1)CO2 (configuration not stated) -8.01%
CC(C)(C)c1ccc(C2=NC(C)(C)N(CC(=O)Nc3ccc(F)c(F)c3)C2=O)cc1 -0.334%
CCCNC(=O)C1CCN(Cc2cc3ccccc3n2Cc2ccccc2)CC1 -6.8%
COc1cc(C)ccc1OCCSc1nc2ccc(NC(=O)c3ccc(C)cc3)cc2s1 2.18%
CC1(C)CC(=O)c2cc(-c3nc(-c4ccc(Cl)cc4)cs3)c(=O)n(-c3cccc(F)c3)c2C1 6.95%
COc1ccccc1NC(=O)CCn1cnc2onc(-c3ccc(F)cc3)c2c1=O -9.01%
COc1ccccc1-c1noc(-c2ccc(NCc3cccnc3)c([N+](=O)[O-])c2)n1 -14.3%
CCCSc1nnc2c(n1)OC(c1ccc(OCC(=O)O)cc1)Nc1ccccc1-2 (configuration not stated) -1.99%
O=C(CN1C(=O)CC(c2ccco2)Sc2ccccc21)Nc1ccc(Br)cc1 (configuration not stated) -4.06%
COc1ccc(-c2ccc(CCC(=O)O)n2CC(=O)Nc2cccc(Cl)c2C)cc1 -10.6%
Cn1cc(C(=O)NCCc2ccccc2)c(=O)c2cc(S(=O)(=O)N3CCCCCC3)ccc21 -20.3%
Cc1c(C(=O)N(Cc2ccc(N(C)C)cc2)Cc2ccco2)oc2cc(Br)ccc12 -20.7%
COc1ccc(CNC(=O)CCc2c(C)nc3nc(CNC(=O)OC(C)(C)C)nn3c2C)cc1 -2.32%
CC(=O)c1cccc(Nc2nn(-c3ccc(OC(F)(F)F)cc3)nc2C(C)=O)c1 -10.8%
COc1cccc(C(c2sc3nc(-c4ccco4)nn3c2O)N2CCN(c3ccccc3F)CC2)c1 (configuration not stated) -26.3%
